# Experimental data as given in the supplement of paper PMC11417369.
# ± gives the standard deviation of the averaged measurements. The list shows a part of the results.
# Test system: PfAP2-EXP AP2 domain (GST-tagged)
# Test: gcPBM binding intensity (ln(normalized median fluorescence intensity)); higher = stronger DNA binding
# In short: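 Using an Agilent 4 × 180k array, primer-extended double-stranded 36-bp intergenic genomic probes and negative controls were exposed for 1 h to GST-fused P. falciparum DNA-binding domains expressed in E. coli. Binding was carried out in 1× PBS with 1% milk, 0.2 mg/ml BSA, 0.5% salmon testes DNA and 0.03% Triton X-100, and protein was detected with Alexa488 anti-GST antibody and a 488 nm scan. Binding intensity is the highest Masliner-normalised natural-log median intensity across replicate spots of either probe orientation.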
row,Sequence,gcPBM binding intensity (ln)
1,ATATATTATATTATATGTACTTAAAAAAGTGCAAAG [XGTACX_site318],8.44 ± 0.23
2,TATATTCAATTTTTGGTGCGTAAATTAATACAAACA [GTGCAC_site9764],8.74 ± 0.13
3,AGAGAGAACGGTATAACATGCGATAAATTTTAGAAG [TGCATGCA_site357],9.01 ± 0.45
4,TTTTTTCAATAAATAATCGTATATTGAATAATAATA [CACACA_negctrl_site822],8.3 ± 0.74
5,TATATGTCCATATTTCCACACACATATTATTTTTAT [CACACA_site9266],8.82 ± 0.32
6,CGGACATACTAACGGACACACGTAAGAAAAAAAAAG [CACACA_site4504],8.89 ± 0.41
7,ATGCACGGAAAAATATGTACTTAATTTCAATAATAT [XGTACX_site8311],8.8 ± 0.34
8,TATTAATTTTTCCTTTTTTTTTTACCCCTTTGTACA [CACACA_negctrl_site947],8.62 ± 0.55
9,ATTTTAATTTTGTATACACACATTTGAATTATTAAT [CACACA_site3528],8.62 ± 0.44
10,AAATAATACATTCGTACTACACATATATATTAAATA [XGTACX_site7806],8.56 ± 0.41
11,TAAAATGTTATAAGAACATGCAATTCCTTTTATTAT [TGCATGCA_site408],8.26 ± 0.28
12,AATATATACATATATACACACACATATATATATATA [CACACA_site8907],10.1 ± 0.42
13,ATAATATGAGTCCCACAAAATAGACCATACGAATAT [CACACA_negctrl_site50],8.64 ± 0.34
14,TATAAATTTATACCAGTGCATTTTGAAATATATATA,8.84 ± 0.26
15,TGGAACCATAAAAAGTGTACACATATAAAAAATATG [XGTACX_site96],8.62 ± 0.33
16,AAAAAAAAGTTATATACACACATATAAATATAAATA [CACACA_site6683],8.5 ± 0.55
17,TTTTTTTTTTTTTGAACACACATTATTAACTTTTAT [CACACA_site6281],8.3 ± 0.49
18,CGCGAACATACATACACACACATATATATATATGTA [CACACA_site205],8.8 ± 0.54
19,TATATATTTTATATATGTACATATTTATATGTTTCT [XGTACX_site1818],8.31 ± 0.34
20,CATGTAAAATATTAAAGTACATGATTATATATATAT [XGTACX_site7486],9.76 ± 0.2
21,AAAAATATTAAAAGGCGTACAATACCTGTATGCAAC [XGTACX_site6069],8.49 ± 0.23
22,AGCTAAAATATTTTTGCACACGATTTTTTTTTTTTT [CACACA_site1140],8.47 ± 0.36
23,TATATTTATATAATATGTACATATTTTTTAATATTT [XGTACX_site3834],8.28 ± 0.3

row,Sequence,gcPBM binding intensity (ln)
1,TATTTTATTTTCCGAAGTACAAAAGCAAAAAAAAAC [XGTACX_site103],8.92 ± 0.41
2,TTGCATCTATTTTTGAGTACACAATGAGAATAATTA [XGTACX_site7171],8.51 ± 0.33
3,AAAAATAAATATACATGTACATAATAATAATATATA [XGTACX_site8359],8.61 ± 0.28
4,TTTGAAAAAAAATATTGTACACGTGAATAAAGTATT [XGTACX_site644],8.96 ± 0.43
5,TTAAAAAAGTAATTAACACACAATAATGTAATGCAT [CACACA_site4176],8.58 ± 0.34
6,TTATTATATATGTTCACATAAATACATAAATATATA [GTGCAC_negctrl_site529],8.36 ± 0.33
7,TATATATATATATATATATATATATATATAATTTGA [XGTACX_negctrl_site3],9.97 ± 0.61
8,AAAAAAAAAAGACACACACACACATACACATACATA [CACACA_site7362],8.6 ± 0.58
9,ACCCAAAATATATTCACACAAAAAATATTAAAAATA [CACACA_site5433],8.43 ± 0.49
10,AAGCATCCTACTGATTGTACATATATATATATATAT [XGTACX_site2150],10.2 ± 0.3
11,GAGAACATTGATACACGTACATAAGTTATAAGTATT [XGTACX_site7665],8.71 ± 0.35
12,AATAAACAAATAAATAAATAAACAGATAAATAAATC [CACACA_negctrl_site920],8.79 ± 0.32
13,TAATATATATAACAAGTGCAAAAAAATATAGATATT [GTGCAC_site9625],9.09 ± 0.13
14,TTAGGTTATAAATACACACACAAAAGAAAAAAAAAA [CACACA_site5625],8.52 ± 0.54
15,TTTATTTATATAATTACACACATATATACACAAATG [CACACA_site8903],8.42 ± 0.44
16,TATTTAAATTAATATTGTACATATATTTATAATATA [XGTACX_site6109],8.27 ± 0.37
17,AAATATATTATATATGCATGCGCCAAGATTTATATA [TGCATGCA_site770],9.08 ± 0.3
18,TATATATATTCTTTGTGTACTCATATAAGGGTAGAA [XGTACX_site8121],8.72 ± 0.27
19,AATCAATATTATATATGTACTTATTTTCACTTTTGC [XGTACX_site1775],8.71 ± 0.32
20,TTTTTAGAAAAGGTTATAAAAAATTAATTGAAAAAA [GTGCAC_negctrl_site289],8.2 ± 0.45
21,TTGTCATTATTATATTGTACAATAAGTATTAAAGAA [XGTACX_site1205],8.64 ± 0.34
22,AACTGATATTAATTCTGTACCTATACGTTATATGTT [XGTACX_site1003],8.68 ± 0.48
23,AAGCGAATCTATATCACACACAAAAAAATCAGACTA [CACACA_site7072],8.57 ± 0.44

row,Sequence,gcPBM binding intensity (ln)
1,AGTTCAGAATTGAATAGTACATAAATATAACAAAAT [XGTACX_site650],8.88 ± 0.36
2,TATGAACATATATATTGTACAAAATTATAATTTCAA [XGTACX_site6406],8.46 ± 0.4
3,AAAAGGAAAAATATCACACATATATATATATATATA [CACACA_site5586],10.2 ± 0.34
4,ATTATTATACACAAATGTACATGTGAATTTTTTTTC [XGTACX_site6982],8.59 ± 0.46
5,AATAAGTAACAAAATACACACATATAGGTAATTATA [CACACA_site6949],8.66 ± 0.32
6,ATATATATTTATAGGTGTACAAAATACTATTTTAGG [XGTACX_site8499],8.62 ± 0.19
7,GTACGTTAGATATATACACACATACATAATAAAGAA [CACACA_site7327],8.57 ± 0.099
8,TTACCCATTCCCTTTACATGCAATTTGTATTAATAA [TGCATGCA_site412],9.28 ± 0.28
9,TTAATTCTACTTATTACACACATATTAAGCAAAAAT [CACACA_site4921],8.43 ± 0.35
10,ATATGTTCCGAAGGTTGTACACACATAGAAATATAC [XGTACX_site8227],9.1 ± 0.38
11,AAAATATATACAATATGTACATATATATATATATAT [XGTACX_site1898],9.96 ± 0.35
12,TATTTATATTTATACACACACACAAAAAAAAAAAAA [CACACA_site6817],8.36 ± 0.57
13,TATATATATATAAAGACACACATCTATAGAATGTTA [CACACA_site2557],9.8 ± 0.22
14,TTGTTTTCTTTTTCTTTTCTTTTTCTTTTTTCTTTT [GTGCAC_negctrl_site629],8.49 ± 0.73
15,TATATATATATACCTTGTACTTACATTCGCATATAA [XGTACX_site2466],10.12 ± 0.078
16,AAAAAAAAAAAAAAAGCACACACACCGATGTGTATA [CACACA_site8224],8.48 ± 0.092
17,GTATAATTATGTGCACGTACATATTTTATTATATAT [XGTACX_site8586],9.05 ± 0.11
18,CCATTACCATATAAAACACACAAACATACATACATA [CACACA_site5952],8.7 ± 0.54
19,ACATAAATATATGACACACACACATATTATATATAT [CACACA_site3065],8.79 ± 0.16
20,TACCAAATTTATTCTTGTACATATATATATATATAT [XGTACX_site4832],10.1 ± 0.4
21,AATATAGAAATAAATATATCACATTTGTGTTTAAAC [XGTACX_negctrl_site68],8.27 ± 0.39
22,TTTATGACTTGAAAAAGTACACATATATTTATGCAA [XGTACX_site5451],8.39 ± 0.34
23,GTAAGAAACAGACACACACACATATATATATATATA [CACACA_site794],10.2 ± 0.24

row,Sequence,gcPBM binding intensity (ln)
1,AATAATTTTATCGGTACACACTGTATGCATAATATT [CACACA_site4364],8.84 ± 0.47
2,GAACAGTTTGTTTAGTGTACTTTTTTTTTTTTTTTT [XGTACX_site8881],8.695 ± 0.078
3,TTTGATCGATGGATTTAACACACAAAAAAAAAAAAA [CACACA_site9279],8.31 ± 0.55
4,CTTAATTTAATGAAATGTACATATAAAAATATTATA [XGTACX_site3303],8.47 ± 0.31
5,TCTAATTACAAAAACATACACACAAAAAAAAAAAAA [CACACA_site3783],8.04 ± 0.73
6,TCAAAAATAAAGATCACACATATATATATATATATA [CACACA_site4381],10.2 ± 0.35
7,ATGTACAAAATAAGCACACACAAAAAAAAAAAAAAT [CACACA_site2998],8.47 ± 0.5
8,CCTATAAATGCATTCACACATATATATTTATATTAT [CACACA_site6086],8.7 ± 0.29
9,ATGATAAACATGGATACACACATATAGATTGCATAT [CACACA_site6843],8.56 ± 0.36
10,ATTTCTCTATCGTAATGTACATAAAAAAGAAAAACA [XGTACX_site6374],8.71 ± 0.52
11,TTATTAAATTCATAAGTGCATTTATGATTAATTTTT [GTGCAC_site9749],8.32 ± 0.085
12,TTCATCTTAAAATTGGGTACATAACACAAAGTATAA [XGTACX_site1894],8.67 ± 0.33
13,ATATATATTAACAATACACACGTGTATACCTTATTG [CACACA_site5258],8.79 ± 0.39
14,TTACATGTAAAAGGTACACACATTATGTATACAAAT [CACACA_site1117],8.96 ± 0.59
15,TTTTTTTTTTTTTTTTGTCCGTACTGCTTTGTGTTT [XGTACX_site3687],8.26 ± 0.69
16,ATATATATATAGTGCACACTTAAGAATATAAAGAGG [CACACA_site1151],9.98 ± 0.14
17,CTATAAATATTTTATTGTACACACTTTTTATGAATG [XGTACX_site6711],8.88 ± 0.49
18,AAAATTTTTAGTTATACACACAACATAGAAAATATT [CACACA_site328],8.67 ± 0.41
19,CACATACACCCATACACACACATATATATTAAGATA [CACACA_site4459],8.66 ± 0.38
20,AAACTTAATATCGGTACACACACAAGATAAGAATTA [CACACA_site8200],8.7 ± 0.66
